The other results are listed elsewhere or left out.
How the values were obtained:
HSkMC = human skeletal muscle cells; assay: cytotoxicity call (relative viability < 0.9); settings: 10 µM
HepG2 = assay: cytotoxicity call (relative viability < 0.9); settings: 10 µM
S. aureus RN4220 = assay: growth inhibition call (relative growth <= 0.2); settings: 50 µM

Structure (SMILES) | cytotoxicity call (HSkMC) | cytotoxicity call (HepG2) | growth inhibition call (S. aureus RN4220)
C[C@@H]1CCCCO[C@@H](CN(C)C(=O)Nc2cccc3ccccc23)[C@H](C)CN([C@@H](C)CO)C(=O)c2cc(NC(=O)c3ccccc3)ccc2O1 | inactive | active | inactive
C[C@H](CO)N1C[C@H](C)[C@H](CN(C)Cc2ccccc2C(F)(F)F)OCc2ccccc2-c2c(n(C)c3ccccc23)C1=O | active | inactive | inactive
COc1ccc(NC(=O)Nc2ccc3c(c2)CC(=O)N([C@H](C)CO)C[C@H](C)[C@@H](CN(C)S(=O)(=O)c2c(C)noc2C)O3)cc1 | inactive | inactive | inactive
C[C@H]1CN([C@@H](C)CO)C(=O)c2c(c3ccccc3n2C)-c2ccccc2CO[C@@H]1CN(C)C(=O)Nc1ccc2c(c1)OCO2 | inactive | inactive | inactive
COc1ccc(C(=O)Oc2ccc(CCn3c(NC(=O)c4ccc(C(F)(F)F)cc4)nc4cc(C(=O)O)ccc43)cc2)cc1 | inactive | inactive | inactive
Cc1ccc(S(=O)(=O)Nc2ccc3c(c2)C(=O)N([C@@H](C)CO)C[C@H](C)[C@H](CN(C)S(=O)(=O)c2ccc(C)cc2)OCCCC[C@H](C)O3)cc1 | inactive | active | inactive
O=C(C[C@H]1CC[C@@H]2[C@H](COC[C@H](O)CN2S(=O)(=O)c2ccccc2F)O1)NCc1ccccc1Cl | inactive | inactive | inactive
C[C@@H]1CCCCO[C@H](CN(C)CC2CCCCC2)[C@H](C)CN([C@@H](C)CO)C(=O)c2cc(NC(=O)Nc3ccccc3)ccc2O1 | inactive | active | inactive
COCC(=O)N1C[C@H](C)[C@H](OC)CN(C)C(=O)c2ccc(NC(=O)c3cc(C)on3)cc2OC[C@H]1C | inactive | inactive | inactive
COc1ccc(S(=O)(=O)Nc2ccc3c(c2)C(=O)N([C@@H](C)CO)C[C@H](C)[C@H](CN(C)S(C)(=O)=O)OCCCC[C@@H](C)O3)cc1 | inactive | inactive | inactive
CC(=O)OC1CC2CCC1(C)C2(C)C (configuration not stated) | inactive | inactive | inactive
C[C@@H]1CCCCO[C@@H](CN(C)S(C)(=O)=O)[C@@H](C)CN([C@H](C)CO)C(=O)c2cc(NC(=O)c3ccncc3)ccc2O1 | inactive | inactive | inactive
CCc1nc2ccc(C(=O)Nc3ccc(C(N)=O)cc3)cn2c1N(CC)Cc1cccc(Br)c1 | inactive | inactive | inactive
CS(=O)(=O)N1C[C@H](O)COC[C@H]2O[C@@H](CC(=O)NCc3ccccc3)CC[C@@H]21 | inactive | inactive | inactive
Cc1ccc(S(=O)(=O)N(C)C[C@@H]2Oc3c(NC(=O)Nc4ccc(C(F)(F)F)cc4)cccc3C(=O)N([C@H](C)CO)C[C@H]2C)cc1 | inactive | inactive | inactive
CN1CCN(C(=O)C[C@H]2C[C@H]3c4cc(NC(=O)c5ccc6c(c5)OCO6)ccc4O[C@H]3[C@@H](CO)O2)CC1 | inactive | inactive | inactive
Nc1ccccc1OCc1ccccc1 | inactive | inactive | inactive
C[C@H](CO)N1C[C@H](C)[C@H](CN(C)S(=O)(=O)c2cn(C)cn2)Oc2ncc(-c3cccc(C(F)(F)F)c3)cc2C1=O | inactive | active | inactive
O=C(O[C@@H]1O[C@@H]2COC(=O)c3cc(O)c(O)c(O)c3-c3c(cc(O)c(O)c3O)C(=O)O[C@H]2[C@H](OC(=O)c2cc(O)c(O)c(O)c2)[C@H]1OC(=O)c1cc(O)c(O)c(O)c1)c1cc(O)c(O)c(O)c1 | active | active | inactive
OCCN1CCN(CCCN2c3ccccc3Sc3ccc(Cl)cc32)CC1 | inactive | active | inactive
Cc1noc(C)c1NC(=O)Nc1ccc2c(c1)C(=O)N([C@@H](C)CO)C[C@@H](C)[C@H](CN(C)C(=O)Nc1ccc3c(c1)OCO3)OCCCC[C@@H](C)O2 | inactive | inactive | inactive
Cc1ccc(S(=O)(=O)N(C)C[C@@H]2OCCCC[C@@H](C)Oc3ccc(NC(=O)Nc4ccccc4)cc3C(=O)N([C@@H](C)CO)C[C@H]2C)cc1 | inactive | active | inactive
C[C@@H]1CN([C@H](C)CO)C(=O)c2cccc(NC(=O)c3cnccn3)c2O[C@@H]1CN(C)CC1CCCCC1 | inactive | inactive | inactive
COc1cccc(-c2cnc3c(c2)C(=O)N([C@H](C)CO)C[C@H](C)[C@H](CN(C)S(=O)(=O)c2ccc(C#N)cc2)O3)c1 | inactive | inactive | inactive
